This is an account of results in the supplement of paper PMC8728848.

The list shows a part of the results.

Common to all, as to assay: glycan array binding signal (z-score within array); higher = stronger binding
Details in all cases: glycan notation: IUPAC condensed, linker removed

For assay [1], the target named is Gal(b1-4)GlcNAc(b1-2)[Gal(b1-4)GlcNAc(b1-6)]Man(a1-6)[GlcNAc(b1-4)][Gal(b1-4)GlcNAc(b1-2)Man(a1-3)]Man(b1-4)GlcNAc(b1-4)GlcNAc. An outline of the steps:
(§1)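 Arrays were curated from the Consortium for Functional Glycomics database, 3228 in total, and kept only where the protein sequence was available. Binding is expressed as a within-array Z-score. This score was averaged across arrays of the same protein sequence at different concentrations or buffers and across linkers, and negative values can be read as non-binding.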

The target of assay [2] is Gal(b1-4)GlcNAc(b1-2)[Gal(b1-4)GlcNAc(b1-6)]Man(a1-6)[GlcNAc(b1-4)][Gal(b1-4)GlcNAc(b1-2)[Gal(b1-4)GlcNAc(b1-4)]Man(a1-3)]Man(b1-4)GlcNAc(b1-4)[Fuc(a1-6)]GlcNAc. Summed up: as §1
Assay [3] addresses Gal(b1-4)GlcNAc(b1-3)Gal(b1-3)GalNAc. Summed up: as §1
Assay [4] concerns the target Gal(b1-4)GlcNAc(b1-3)Gal(b1-3)GlcNAc. An outline of the steps:
as §1

In assay [5] the target is Gal(b1-4)GlcNAc(b1-3)Gal(b1-4)Glc. Summed up:
as §1

Assay [6] concerns the target Gal(b1-4)GlcNAc(b1-3)Gal(b1-4)GlcNAc. An outline of the steps: as §1
Assay [7] concerns the target Gal(b1-4)GlcNAc(b1-3)Gal(b1-4)GlcNAc(b1-2)Man(a1-3)[Gal(b1-4)GlcNAc(b1-3)Gal(b1-4)GlcNAc(b1-2)Man(a1-6)]Man(b1-4)GlcNAc(b1-4)GlcNAc. An outline of the steps:
as §1

In assay [8] the target is Gal(b1-4)GlcNAc(b1-3)Gal(b1-4)GlcNAc(b1-2)Man(a1-3)[Gal(b1-4)GlcNAc(b1-3)Gal(b1-4)GlcNAc(b1-2)Man(a1-6)]Man(b1-4)GlcNAc(b1-4)[Fuc(a1-6)]GlcNAc. An outline of the steps: as §1
Assay [9] addresses Gal(b1-4)GlcNAc(b1-3)Gal(b1-4)GlcNAc(b1-2)[Gal(b1-4)GlcNAc(b1-3)Gal(b1-4)GlcNAc(b1-6)]Man(a1-6)[Gal(b1-4)GlcNAc(b1-3)Gal(b1-4)GlcNAc(b1-2)Man(a1-3)]Man(b1-4)GlcNAc(b1-4)GlcNAc. Summed up: as §1
In assay [10] the target is Gal(b1-4)GlcNAc(b1-3)Gal(b1-4)GlcNAc(b1-2)[Gal(b1-4)GlcNAc(b1-3)Gal(b1-4)GlcNAc(b1-6)]Man(a1-6)[Gal(b1-4)GlcNAc(b1-3)Gal(b1-4)GlcNAc(b1-2)Man(a1-3)]Man(b1-4)GlcNAc(b1-4)[Fuc(a1-6)]GlcNAc. Summed up:
as §1

The target of assay [11] is Gal(b1-4)GlcNAc(b1-3)Gal(b1-4)GlcNAc(b1-3)Gal(b1-4)GlcNAc. An outline of the steps:
as §1

The target of assay [12] is Gal(b1-4)GlcNAc(b1-3)Gal(b1-4)GlcNAc(b1-3)Gal(b1-4)GlcNAc(b1-2)Man(a1-3)[Gal(b1-4)GlcNAc(b1-3)Gal(b1-4)GlcNAc(b1-3)Gal(b1-4)GlcNAc(b1-2)Man(a1-6)]Man(b1-4)GlcNAc(b1-4)GlcNAc. Summed up:
as §1

Assay [13] concerns the target Gal(b1-4)GlcNAc(b1-3)Gal(b1-4)GlcNAc(b1-3)Gal(b1-4)GlcNAc(b1-2)Man(a1-3)[Gal(b1-4)GlcNAc(b1-3)Gal(b1-4)GlcNAc(b1-3)Gal(b1-4)GlcNAc(b1-2)Man(a1-6)]Man(b1-4)GlcNAc(b1-4)[Fuc(a1-6)]GlcNAc. Summed up:
as §1

The target of assay [14] is Gal(b1-4)GlcNAc(b1-3)Gal(b1-4)GlcNAc(b1-3)Gal(b1-4)GlcNAc(b1-2)[Gal(b1-4)GlcNAc(b1-3)Gal(b1-4)GlcNAc(b1-3)Gal(b1-4)GlcNAc(b1-6)]Man(a1-6)[Gal(b1-4)GlcNAc(b1-3)Gal(b1-4)GlcNAc(b1-3)Gal(b1-4)GlcNAc(b1-2)Man(a1-3)]Man(b1-4)GlcNAc(b1-4)[Fuc(a1-6)]GlcNAc. An outline of the steps:
as §1

In assay [15] the target is Gal(b1-4)GlcNAc(b1-3)Gal(b1-4)GlcNAc(b1-3)Gal(b1-4)GlcNAc(b1-3)Gal(b1-4)GlcNAc(b1-2)Man(a1-3)[Gal(b1-4)GlcNAc(b1-3)Gal(b1-4)GlcNAc(b1-3)Gal(b1-4)GlcNAc(b1-3)Gal(b1-4)GlcNAc(b1-2)Man(a1-6)]Man(b1-4)GlcNAc(b1-4)GlcNAc. Summed up: as §1
Assay [16] deals with Gal(b1-4)GlcNAc(b1-3)Gal(b1-4)GlcNAc(b1-3)Gal(b1-4)GlcNAc(b1-3)Gal(b1-4)GlcNAc(b1-2)Man(a1-3)[Gal(b1-4)GlcNAc(b1-3)Gal(b1-4)GlcNAc(b1-3)Gal(b1-4)GlcNAc(b1-3)Gal(b1-4)GlcNAc(b1-2)Man(a1-6)]Man(b1-4)GlcNAc(b1-4)[Fuc(a1-6)]GlcNAc. An outline of the steps:
as §1

For assay [17], the target named is Gal(b1-4)GlcNAc(b1-3)Gal(b1-4)GlcNAc(b1-3)Gal(b1-4)GlcNAc(b1-3)Gal(b1-4)GlcNAc(b1-2)[Gal(b1-4)GlcNAc(b1-3)Gal(b1-4)GlcNAc(b1-3)Gal(b1-4)GlcNAc(b1-3)Gal(b1-4)GlcNAc(b1-6)]Man(a1-6)[Gal(b1-4)GlcNAc(b1-3)Gal(b1-4)GlcNAc(b1-3)Gal(b1-4)GlcNAc(b1-3)Gal(b1-4)GlcNAc(b1-2)Man(a1-3)]Man(b1-4)GlcNAc(b1-4)[Fuc(a1-6)]GlcNAc. An outline of the steps: as §1
Assay [18] has as its target Gal(b1-4)GlcNAc(b1-3)Gal(b1-4)GlcNAc(b1-3)Gal(b1-4)GlcNAc(b1-3)Gal(b1-4)GlcNAc(b1-3)Gal(b1-4)GlcNAc(b1-2)Man(a1-3)[Gal(b1-4)GlcNAc(b1-3)Gal(b1-4)GlcNAc(b1-3)Gal(b1-4)GlcNAc(b1-3)Gal(b1-4)GlcNAc(b1-3)Gal(b1-4)GlcNAc(b1-2)Man(a1-6)]Man(b1-4)GlcNAc(b1-4)GlcNAc. Summed up: as §1
The target of assay [19] is Gal(b1-4)GlcNAc(b1-3)Gal(b1-4)GlcNAc(b1-3)Gal(b1-4)GlcNAc(b1-3)Gal(b1-4)GlcNAc(b1-3)Gal(b1-4)GlcNAc(b1-2)Man(a1-3)[Gal(b1-4)GlcNAc(b1-3)Gal(b1-4)GlcNAc(b1-3)Gal(b1-4)GlcNAc(b1-3)Gal(b1-4)GlcNAc(b1-3)Gal(b1-4)GlcNAc(b1-2)Man(a1-6)]Man(b1-4)GlcNAc(b1-4)[Fuc(a1-6)]GlcNAc. An outline of the steps: as §1
Assay [20] has as its target Gal(b1-4)GlcNAc(b1-3)Gal(b1-4)GlcNAc(b1-3)Gal(b1-4)GlcNAc(b1-3)Gal(b1-4)GlcNAc(b1-3)Gal(b1-4)GlcNAc(b1-2)[Gal(b1-4)GlcNAc(b1-3)Gal(b1-4)GlcNAc(b1-3)Gal(b1-4)GlcNAc(b1-3)Gal(b1-4)GlcNAc(b1-3)Gal(b1-4)GlcNAc(b1-6)]Man(a1-6)[Gal(b1-4)GlcNAc(b1-3)Gal(b1-4)GlcNAc(b1-3)Gal(b1-4)GlcNAc(b1-3)Gal(b1-4)GlcNAc(b1-3)Gal(b1-4)GlcNAc(b1-2)Man(a1-3)]Man(b1-4)GlcNAc(b1-4)[Fuc(a1-6)]GlcNAc. An outline of the steps: as §1

Assay [21] addresses Gal(b1-4)GlcNAc(b1-3)Gal(b1-4)GlcNAc(b1-3)Gal(b1-4)GlcNAc(b1-3)Gal(b1-4)GlcNAc(b1-3)Gal(b1-4)GlcNAc(b1-3)Gal(b1-4)GlcNAc(b1-2)Man(a1-3)[Gal(b1-4)GlcNAc(b1-3)Gal(b1-4)GlcNAc(b1-3)Gal(b1-4)GlcNAc(b1-3)Gal(b1-4)GlcNAc(b1-3)Gal(b1-4)GlcNAc(b1-3)Gal(b1-4)GlcNAc(b1-2)Man(a1-6)]Man(b1-4)GlcNAc(b1-4)GlcNAc. Summed up:
as §1

Assay [22] deals with Gal(b1-4)GlcNAc(b1-3)Gal(b1-4)GlcNAc(b1-3)GalNAc. An outline of the steps: as §1
The target of assay [23] is Gal(b1-4)GlcNAc(b1-3)Gal(b1-4)GlcNAc(b1-3)[Gal(b1-4)GlcNAc(b1-3)Gal(b1-4)GlcNAc(b1-6)]GalNAc. Summed up:
as §1

B1: FimA-N1 (Actinomyces oris) (protein)
chain: MHHHHHHSSGVDLGTENLYFQSNATETPNYGNIKTDATGSLVIHKHLTGGGKDIGTPTGTAQNADDKGPAVEGVVFTAYPITDINLKDPAGWDTISNLSRTGVPDSACANPAAPTLGAHQFGTPKVSPATTKEGLATITEMPVQAYLVCETTTPGDIVQKAKPFVVTIPHPNTAAGADGQWIYDVNVYPKNEAIDVDKTIQAQK
Consider B1, for which the “glycan array binding signal (z-score)” value in [1] was -0.293; in assay [2], -0.29; in assay [3], -0.435; in assay [4], -0.576; in [5], -0.367; in assay [6] it was -0.434. Besides, the “glycan array binding signal (z-score)” value in assay [7] is 0.218; in [8], -0.003; in assay [9], 0.84; in [10] it was 0.409; in assay [11], -0.379; in assay [12], 0.083. Further, the “glycan array binding signal (z-score)” value was 0.569 in [13]; -0.002 in assay [14]; 0.478 in [15]; 0.705 in assay [16]; 1.54 in [17]; 3.32 in assay [18]. In addition, the “glycan array binding signal (z-score)” value in assay [19] is -0.107; in [20] it was 0.224; in [21] it was -0.08; in assay [22], -0.278; in [23] it was 0.015.
